In PubChem BioAssay AID686978 (National Center for Advancing Translational Sciences (NCATS), 2013):
In all, about 420,000 compounds went through this assay and about 64,000 (15%) were called active. Inconclusive means that the source gave no clear call. Such entries were picked first, then a sample of the others. Calls follow the shape of the dose curve; as a rule, active = well fitted inhibition curve with a large enough effect; inconclusive = small, poorly fitted or top-dose-only effect; inactive = flat fitted curve, though single readings scatter. Potencies of inconclusive entries are left out as doubtful fits.

experiment: qHTS for Inhibitors of human tyrosyl-DNA phosphodiesterase 1 (TDP1): qHTS in cells in absence of CPT; conditions: DT40 Tdp1-/- hTDP1 cells, no CPT, ATP luminescence, 48 h; series mostly up to 46.2 µM; also: nearly all actives have a fitted effect of over 55% in size
Procedure, shortened: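 Growth kinetics read by CellTiter-Glo luminescence after ≥48 hr at 37 °C. Cells: DT40 Tdp1-/- stably carrying human TDP1, 400 per well, compound exposure in the absence of CPT (DMSO vehicle).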
Potency is read from the fitted curve at half-maximal effect; tags tell the direction and shape of the fitted curve.

| SMILES | Potency |
| --- | --- |
| C[C@@H](CSc1ccccc1)CN1CC[C@H](O)CCC1=O | inactive |
| Cc1cccc(C2CC(c3ccc(Cl)cc3)Nc3nc(N)nn32)c1 (stereo unspecified) | inconclusive [inhibitor, partial curve] |
| CCCCCCCCCCCCN1C(=O)CSC1c1cccnc1 (stereo unspecified) | active: 16.4 µM |
| O=[N+]([O-])c1ccc(N2CCN(c3ccc(Cl)nn3)CC2)cc1NC1CC1 | inactive |
| O=C(CCCn1c(=O)[nH]c2cc(Cl)ccc2c1=O)NCCCN1CCCC1 | inactive |
| Cc1ccccc1Cn1c(=O)n(Cc2ccc(Cl)cc2)c(=O)c2cccnc21 | active: 16.4 µM |
| COc1ccccc1N=Cc1c(C)c(C#N)c2[nH]c3ccccc3n2c1=O | inconclusive [inhibitor, single point] |
| CCN(CC)C(=S)Oc1c(Cl)cccc1Cl | inconclusive [inhibitor, single point] |
| CCOc1cc(N2CCOCC2)c(OCC)cc1NC(=S)NCCCOC | inactive |
| COc1cc(/C=C2/SC(=S)N(CCC(=O)Nc3ccccc3)C2=O)cc(OC)c1OC | inconclusive [inhibitor, single point] |
| Cc1ccccc1NC(=O)COc1ccc(Br)cc1C | inconclusive [inhibitor, partial curve] |
| CCOc1ccccc1C(=O)N(Cc1ccc(C)o1)C1CCS(=O)(=O)C1 (stereo unspecified) | inconclusive [inhibitor, single point] |
| Cc1nc(NCc2ccco2)[nH]c(=O)c1CCC(C)C | inconclusive [inhibitor, single point] |
| Cn1c(SCc2ccc(C(F)(F)F)cc2)nc2c([nH]c3ccccc32)c1=O | active: 18.4 µM |
| Cn1c(CN2CCN(c3cccc(Cl)c3)CC2)nc2ccccc21 | inconclusive [inhibitor, single point] |
| O=c1cc(N2CCN(c3ccc(F)cc3)CC2)[nH]c(=O)n1-c1ccc(Br)cc1 | inconclusive [inhibitor, partial curve] |
| CCc1nc(NCC2CCCN2CC)c2nnn(Cc3ccccc3F)c2n1 (stereo unspecified) | inconclusive [inhibitor, single point] |
| Cc1cccc(N2CCN(C3CCCCC3NS(=O)(=O)c3ccccc3)CC2C)c1 (stereo unspecified) | inconclusive [inhibitor, single point] |
| C[C@H]1CN([C@@H](C)CO)C(=O)c2cc(NC(=O)C3CCCCC3)ccc2O[C@H]1CN(C)S(=O)(=O)c1ccccc1 | inconclusive [inhibitor, partial curve, poor fit] |
| C/C(=N\N=C1\NC(=O)C(CC(=O)Nc2ccccc2F)S1)C1CCCCC1 (stereo unspecified) | inactive |
| COc1ccc(NC2CCCCC2NS(=O)(=O)c2ccc(C)cc2)cc1 (stereo unspecified) | inconclusive [inhibitor, single point] |
| CCCCOCC(O)Cn1c(C)nc2ccccc21 (stereo unspecified) | inconclusive [inhibitor, single point] |
| COCCNC(=S)N1CCc2cc(OC)c(OC)cc2C1COc1ccc(F)cc1 (stereo unspecified) | inconclusive [inhibitor, single point] |
| Cc1ccc(C2CC(c3cccc(NS(C)(=O)=O)c3)=NN2S(C)(=O)=O)cc1 (stereo unspecified) | inconclusive [inhibitor, single point] |

| SMILES | Potency |
| --- | --- |
| CCOC(=O)c1c(NC(=O)c2nc(SC(C)C)ncc2Cl)sc2c1CCCC2 | inactive |
| O=C(c1ccc2c(c1)N(Cc1ccc(F)cc1)CCS2)N1CCOCC1 | inconclusive [inhibitor, single point] |
| Cc1ncsc1CCOC(=O)C12CC3CC(CC(C3)C1)C2 | inactive |
| NS(=O)(=O)c1ccc(CCNC(=O)C2CCCO2)cc1 (stereo unspecified) | inactive |
| CCOC(=O)c1cc2occc2n1CC(=O)Nc1ccc(OC)cc1OC | inconclusive [inhibitor, partial curve] |
| CC(=O)Nc1ccc(S(=O)(=O)N2CCSc3ccccc32)cc1 | active: 3.66 µM |
| COc1cc(NC(=O)N2CCC(CN3CCCC3)CC2)cc(OC)c1OC | inactive |
| CCC(C)NC(=S)N1CCN(C(c2ccccc2)c2ccccc2)CC1 (stereo unspecified) | inconclusive [inhibitor, single point] |
| O=C(Nc1nc2ccc([N+](=O)[O-])cc2s1)C1CCCO1 (stereo unspecified) | inactive |
| COc1cc(C(=O)NCC(c2cccnc2)N2CCc3ccccc32)cc(OC)c1OC (stereo unspecified) | active: 20.6 µM |
| CCOc1ccc(S(=O)(=O)Nc2cccc(C(=O)N3CCN(c4ccccc4O)CC3)c2)cc1 | inconclusive [inhibitor, single point] |
| COc1ccc(CNC(=O)Cc2csc(NC(=O)Nc3ccccc3OC)n2)cc1 | active: 14.6 µM |
| COC(=O)/C(=N/Nc1ccccc1C)N1CCCc2ccccc21 | inconclusive [inhibitor, single point] |
| Cc1ccc(C)c(CN2C[C@H](Sc3ccccn3)C[C@H]2C(=O)Nc2ccc3sc(C)nc3c2)c1 | inactive |
| O=C(Nc1ccc(-c2nnco2)cc1)c1ccccc1 | inactive |
| CN1CCN(c2ncnc3ccc(-c4ccc5c(c4)OCO5)cc23)CC1 | inconclusive [inhibitor, single point] |
| CCOCC(=O)N1CCc2ccccc21 | active: 18.4 µM |
| CCC(C)NC(=O)c1nn(Cc2ccccc2)c(=O)c2ccccc12 (stereo unspecified) | inconclusive [inhibitor, partial curve] |
| Cc1ccc([C@@H]2CC=C(C(=O)O)[C@H](c3ccc(C(C)(C)C)cc3)N2S(=O)(=O)c2ccc(C)cc2)cc1 | inconclusive [inhibitor, single point] |
| COc1ccc(CN(Cc2cc3cc(OC)c(OC)cc3[nH]c2=O)C(=O)NC2CCCCC2)cc1 | inconclusive [inhibitor, single point] |
| CC(C)NC(=O)COCc1cc(-c2ccc3c(c2)OCO3)on1 | inactive |
| CSC12CCCN(CCC(C(C)(C)C)C1)C2=O (stereo unspecified) | inactive |
| COc1ccc2c(c1)-c1nc(/N=C/c3c(O)ccc4ccccc34)sc1CC2 | inconclusive [inhibitor, single point] |
| O=C(Cc1csc(-c2ccccc2)n1)Nc1ccc(C(F)(F)F)cc1 | inconclusive [inhibitor, partial curve, poor fit] |

| SMILES | Potency |
| --- | --- |
| CCOC(=O)C1=CCN(S(=O)(=O)c2ccc(Cl)cc2)C1c1ccccc1 (stereo unspecified) | inconclusive [inhibitor, single point] |
| Cc1ccc2c(c1)N(CC(=O)NCCc1ccccc1)C(=O)c1cccnc1O2 | inactive |
| CCOC(=O)c1ccc(S(=O)(=O)N2CCN(c3ccccn3)CC2)cc1 | inconclusive [inhibitor, full curve] |
| O=[N+]([O-])c1ccc(/C=N/NC2=NS(=O)(=O)c3ccccc32)cc1 | inactive |
| Cc1ccc(S(=O)(=O)NCC(c2cccnc2)N2CCc3ccccc32)cc1 (stereo unspecified) | inconclusive [inhibitor, partial curve] |
| COc1ccc(CCNC(=O)Nc2nc(C(N)Cc3ccccc3)cs2)cc1OC (stereo unspecified) | active: 20.6 µM |
| CCc1ccc(C2c3[nH]c4ccccc4c3CCN2C(=O)c2ccc(=O)n(C)n2)cc1 (stereo unspecified) | inconclusive [inhibitor, single point] |
| Cc1cc(OCc2cc(C(=O)N(C)Cc3ccccn3)no2)cc(C)c1Cl | inconclusive [inhibitor, single point] |
| COc1cccc(-c2cnc(C(O)c3cc(C)c(OC)c(C)c3)[nH]2)c1 (stereo unspecified) | inconclusive [inhibitor, single point] |
| COc1ccc(CN2CCN(S(=O)(=O)c3ccc(NC(C)=O)cc3)CC2)cc1 | inconclusive [inhibitor, single point] |
| N#Cc1nc(Cc2ccccc2)oc1N1CCCC1 | inconclusive [inhibitor, single point] |
| CC1(C)C[C@@H]2C[C@@](C)(CN2C(=O)c2ccccc2)C1 | active: 14.6 µM |
| CCOC(=O)c1c(C)oc2ccc(NS(=O)(=O)c3ccc4c5c(cccc35)C(=O)N4)cc12 | inconclusive [inhibitor, partial curve] |
| O=C(CSc1nccn1-c1ccc(F)cc1)Nc1ccc(OC(F)(F)F)cc1 | inconclusive [inhibitor, single point] |
| CCn1c(C2CCN(S(=O)(=O)c3ccc(OC)cc3)CC2)n[nH]c1=S | inconclusive [inhibitor, partial curve, poor fit] |
| CC(C)(C)NC(=O)NC(=O)CN1CCN(c2ccc(O)cc2)CC1 | inconclusive [inhibitor, single point] |
| COc1ccc(CC(=O)NCCc2ccc(Cl)cc2Cl)cc1 | inactive |
| Cc1cc(C)cc(Nc2ccc([N+](=O)[O-])nc2[N+](=O)[O-])c1 | inactive |
| COc1cc(C2C(=O)N(C3CCCCC3)CC(=O)N2Cc2ccc(C)cc2)ccc1OC(C)C (stereo unspecified) | inconclusive [inhibitor, partial curve] |
| CCc1cc2c(=O)n(Cc3ccco3)c(SCc3c(C)noc3C)nc2s1 | active: 2.91 µM |
| COc1cc(C2C(c3ccccc3)C(c3cc(OC)cc(=O)o3)C2c2ccccc2)oc(=O)c1 (stereo unspecified) | inconclusive [inhibitor, single point] |
| CN(C(=O)COc1cc(=O)n(C)c2ccccc12)c1cccc(Cl)c1 | inconclusive [inhibitor, partial curve] |
| O=C(NCC(c1ccco1)N1CCc2ccccc2C1)c1ccc(Cl)cc1 (stereo unspecified) | inconclusive [inhibitor, single point] |
